Laboratory results as given in PubChem BioAssay AID588855 (National Center for Advancing Translational Sciences (NCATS), 2011).
In all, about 410,000 compounds went through this assay and about 5,000 (1.2%) were called active. This list was built around the results that the source calls inconclusive (neither active nor inactive); the mix of calls is not that of the screen. Calls follow the shape of the dose curve; as a rule, active = well fitted inhibition curve with a large enough effect; inconclusive = small, poorly fitted or top-dose-only effect; inactive = no such curve, though single readings can be large or run the other way. Where the call is inconclusive, the potency comes from a doubtful curve fit.

Experiment: qHTS for Inhibitors of TGF-b; also: nearly all actives have a fitted effect of over 65% in size
Details: HepG2 CAGA-GFP TGF-b/SMAD3 reporter, GFP fluorescence, 18 h, TGF-beta stimulated, 500 pg/mL final; series mostly up to 46.1 µM; activity, negative = inhibition: at the top concentration
Summary of the method: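 Inhibition of TGF-beta-driven CAGA-GFP reporter expression in HEPG2 cells is measured by cellular GFP fluorescence after 18 h stimulation with 500 pg/mL recombinant TGF-beta in 1% FBS medium at 37 degrees C.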
% is scaled to controls: 0 for no effect and ±100 for the full control effect; potency is read from the fitted curve at half-maximal effect; tags tell the direction and shape of the fitted curve.

Q: For `NCC(O)(c1ccc(Cl)cc1)c1ccc(Cl)cc1`, which Potency is on record?
A: Its Potency is inconclusive: 12.6 µM [inhibitor, single point].

Q: Which “activity, negative = inhibition” value does the source give for `Cc1[nH]c(=O)[nH]c(=O)c1C=CC(=O)NC(CO)CS(=O)Cc1ccccc1` (stereo not given) here?
A: The value was inactive: 15.3%.

Q: With `Cc1ccc(C(=O)OCC(=O)Nc2ccccc2)cc1S(=O)(=O)N1CCCCC1` as the molecule, how does the “activity, negative = inhibition” value read?
A: Its value is inactive: -9.3%.

Q: With `CCN1CCN(c2ccc(S(=O)(=O)N3CCOCC3)cc2NC(=O)c2ccc(C(F)(F)F)cc2)CC1` as the molecule, how does the “activity, negative = inhibition” value read?
A: Its value is inactive: 15.5%.

Q: For `O=[N+]([O-])c1ccc(CN2CCOCCOCCN(Cc3ccc([N+](=O)[O-])cc3)CCOCC2)cc1`, which Potency is on record?
A: Its Potency is inconclusive: 35.5 µM [inhibitor, single point].

Q: For `CC(C)CC1Nc2ncnc(N3CCN(c4ccccc4)CC3)c2N(Cc2ccccc2)C1=O` (stereo not given), which Potency is on record?
A: The Potency was inconclusive: 10 µM [inhibitor, partial curve, poor fit].

Q: Which “activity, negative = inhibition” value does the source give for `CCCc1nc2c(C)cc(Br)cn2c1Cc1ccccc1` here?
A: Its value is inactive: -25.9%.

Q: With `CCn1c(-c2cc(OC)c(OC)c(OC)c2)n[nH]c1=S` as the molecule, how does the “activity, negative = inhibition” value read?
A: Its value is inactive: 14.9%.

Q: Which “activity, negative = inhibition” value does the source give for `CCN(CC)S(=O)(=O)c1ccc(N2CCOCC2)c(NC(=O)c2cccc3ccccc23)c1` here?
A: Its value is inactive: 3.02%.

Q: Which Potency does the source give for `Cc1c[n+]([O-])ccc1Oc1ccc([N+](=O)[O-])cc1` here?
A: Its Potency is inconclusive: 1.26 µM [inhibitor, partial curve, poor fit].

Q: Which Potency does the source give for `Cc1cc(Nc2ccccc2)n(-c2nc3ccccc3[nH]2)n1` here?
A: The Potency was inconclusive: 35.5 µM [inhibitor, single point].

Q: With `COc1ccc(CCNc2ncnc3c2c(-c2ccccc2)cn3-c2cccc(Cl)c2)cc1OC` as the molecule, how does the “activity, negative = inhibition” value read?
A: Its value is inactive: -15.1%.

Q: Which Potency does the source give for `COc1cccc(-c2ccc3c(c2)O[C@@H](CN(C)Cc2cncnc2)[C@@H](C)CN([C@H](C)CO)S3(=O)=O)c1` here?
A: Its Potency is inconclusive: 2.51 µM [inhibitor, partial curve, poor fit].

Q: Which Potency does the source give for `CN(C)c1ccc(C(CNS(=O)(=O)c2ccc(F)c(F)c2)c2c[nH]c3ccccc23)cc1` (stereo not given) here?
A: Its Potency is inconclusive: 12.6 µM [inhibitor, single point].

Q: For `CN1CCN(C(=O)CCN2C(=O)/C(=C/c3ccccc3Cl)SC2=S)CC1`, which Potency is on record?
A: Its Potency is inconclusive: 11.2 µM [inhibitor, partial curve, poor fit].

Q: Which Potency does the source give for `Cc1ccc(CNC(=O)Cn2c(=O)cc(-c3ccccc3)c3c(C)nn(C)c32)cc1` here?
A: Its Potency is inconclusive: 0.112 µM [inhibitor, full curve, poor fit].

Q: For `CCCc1cc(=O)[nH]c(SCC(=O)Nc2ncc(S(=O)(=O)c3ccc([N+](=O)[O-])cc3)s2)n1`, which Potency is on record?
A: The Potency was inconclusive: 35.5 µM [inhibitor, single point].

Q: Which Potency does the source give for `O=C(CCS(=O)(=O)c1cccc2nsnc12)NC1CCCCCC1` here?
A: The Potency was inconclusive: 28.2 µM [inhibitor, single point].

Q: Which Potency does the source give for `COc1ccccc1/C=C\C(=O)NCC(=O)N/N=C/c1cccc(OC)c1O` here?
A: Its Potency is inconclusive: 3.16 µM [inhibitor, full curve].

Q: With `O=C(O)c1cccc(CN2C(=O)S/C(=C/c3ccccc3[N+](=O)[O-])C2=O)c1` as the molecule, how does the “activity, negative = inhibition” value read?
A: The value was inactive: -46.2%.

Q: For `N#CCSc1nnc(-c2c[nH]c3ccccc23)o1`, which “activity, negative = inhibition” value is on record?
A: Its value is inactive: 0.585%.

Q: For `CCOC(=O)c1c(NC(=O)CSc2cn(CCNC(=O)c3ccccc3OC)c3ccccc23)sc2c1CCCC2`, which Potency is on record?
A: The Potency was inconclusive: 11.2 µM [inhibitor, partial curve, poor fit].

Q: Which Potency does the source give for `CCCCNC(=O)COC(=O)c1cc(Br)ccc1Cl` here?
A: Its Potency is inconclusive: 5.62 µM [inhibitor, single point].

Q: Which “activity, negative = inhibition” value does the source give for `Cc1nn(CC(=O)N2CCN(c3ccccc3)CC2)c(=O)c2cc3cc(F)ccc3n12` here?
A: The value was inactive: -7.1%.

Q: For `O=C(CSc1nnc2ccc(-c3ccccc3)nn12)NCC1CCCO1` (stereo not given), which Potency is on record?
A: Its Potency is inconclusive: 3.55 µM [inhibitor, partial curve, poor fit].

Q: Which Potency does the source give for `CC(C)(C)c1ccc(OCC(=O)NCc2ccco2)c(Br)c1` here?
A: Its Potency is inconclusive: 22.4 µM [inhibitor, single point].

Q: Which Potency does the source give for `O=[N+]([O-])c1cccc(-c2cc(-c3cc(Br)ccc3O)[nH]n2)c1` here?
A: Its Potency is inconclusive: 12.6 µM [inhibitor, partial curve, poor fit].

Q: With `CC(NC(=O)COC(=O)Cc1ccsc1)c1ccccc1` (stereo not given) as the molecule, how does the Potency read?
A: Its Potency is inconclusive: 5.62 µM [inhibitor, single point].

Q: Which Potency does the source give for `C=C(C)COc1ccc(-c2n[nH]c(C)c2Oc2ccccc2OC)c(O)c1` here?
A: Its Potency is inconclusive: 20 µM [inhibitor, single point].

Q: For `O=C(CSc1nc(=O)n(Cc2ccco2)c2c1CCC2)NCc1ccccc1Cl`, which Potency is on record?
A: Its Potency is inconclusive: 25.1 µM [inhibitor, single point].

Q: With `Nc1nc2cc(S(=O)(=O)N3CCOCC3)ccc2o1` as the molecule, how does the “activity, negative = inhibition” value read?
A: Its value is inactive: 17.5%.

Q: For `COc1ccc(C(=O)OCC(=O)Nc2ccc(Cl)c(C(F)(F)F)c2)c(OC)c1OC`, which Potency is on record?
A: Its Potency is inconclusive: 35.5 µM [inhibitor, single point].

Q: With `CCOc1ccc(CCNC(=O)CN2C(=O)CCSc3ccccc32)cc1` as the molecule, how does the “activity, negative = inhibition” value read?
A: The value was inactive: -1.04%.

Q: With `COc1ccc(Cc2nnc(N/N=C/c3ccc(O)cc3)[nH]c2=O)cc1OC` as the molecule, how does the Potency read?
A: The Potency was inconclusive: 1.26 µM [inhibitor, full curve, poor fit].

Q: With `CCOC(=O)c1c(C)[nH]c(C)c1C(=O)CSc1nc2ccccc2c(=O)n1-c1ccc(CC)cc1` as the molecule, how does the Potency read?
A: The Potency was inconclusive: 14.1 µM [inhibitor, single point].

Q: For `COc1cc(C(=O)Nc2ccc(N(C)C)cc2)c([N+](=O)[O-])cc1OC`, which Potency is on record?
A: The Potency was inconclusive: 6.31 µM [inhibitor, single point].

Q: With `CCn1cc(C(=O)OCC(=O)Nc2cccc(Cl)c2C)c(=O)c2ccc(C)nc21` as the molecule, how does the “activity, negative = inhibition” value read?
A: Its value is inactive: -15.2%.

Q: For `C/C(=N\OCC(=O)Nn1c(C)nc2ccccc2c1=O)c1ccccc1`, which Potency is on record?
A: Its Potency is inconclusive: 22.4 µM [inhibitor, single point].

Q: Which “activity, negative = inhibition” value does the source give for `C/C(=N\NS(=O)(=O)c1c(C)cc(C)cc1C)c1ccncc1` here?
A: Its value is inactive: 1.07%.

Q: For `COCCNC(=O)CN1C(=O)COc2ccc(S(=O)(=O)N3CCOCC3)cc21`, which Potency is on record?
A: The Potency was inconclusive: 5.62 µM [inhibitor, single point].

Q: For `O=C1Nc2cc(C(=O)NCCCN3CCCC3)ccc2S/C1=C\c1ccccc1`, which Potency is on record?
A: Its Potency is inconclusive: 15.8 µM [inhibitor, single point].

Q: For `O=C(COc1ccc(S(=O)(=O)N2CCCC2)cc1)N1CCCC1`, which “activity, negative = inhibition” value is on record?
A: Its value is inactive: 3.15%.

Q: With `N#Cc1ccccc1NC(=O)C1CC(=O)N(c2ccc3c4c(cccc24)CC3)C1` (stereo not given) as the molecule, how does the “activity, negative = inhibition” value read?
A: The value was inactive: 0%.

Q: With `O=C(Nc1ccc(S(=O)(=O)N2CCCC2)cc1)C1CCCN1C(=O)c1cccs1` (stereo not given) as the molecule, how does the Potency read?
A: Its Potency is inconclusive: 1 µM [inhibitor, full curve].

Q: Which Potency does the source give for `O=C(NCCc1ccccc1)C(=O)NCC(c1cccnc1)N1CCN(c2ccccc2)CC1` (stereo not given) here?
A: Its Potency is inconclusive: 35.5 µM [inhibitor, single point].

Q: For `CCc1ccccc1NC(=O)Cn1cccc1C1=NC(c2ccccc2)CO1` (stereo not given), which “activity, negative = inhibition” value is on record?
A: The value was inactive: -4.08%.

Q: Which Potency does the source give for `O=C(Cn1cc(S(=O)(=O)N2CCN(c3ccccc3F)CC2)c2ccccc2c1=O)Nc1cccc(C(F)(F)F)c1` here?
A: The Potency was inconclusive: 7.08 µM [inhibitor, partial curve].

Q: For `Cc1ccccc1CNC(=O)CCCn1c(=O)c2cccn2c2ccccc21`, which Potency is on record?
A: Its Potency is inconclusive: 35.5 µM [inhibitor, single point].

Q: With `CC(NS(=O)(=O)c1cccc(Cl)c1)C(=O)Nc1ccc(-c2nc3ccccc3s2)cc1` (stereo not given) as the molecule, how does the Potency read?
A: The Potency was inconclusive: 12.6 µM [inhibitor, single point].

Q: With `CCC(C)NC(C(=O)Nc1ccc(Cl)c([N+](=O)[O-])c1)c1ccccc1` (stereo not given) as the molecule, how does the Potency read?
A: The Potency was inconclusive: 31.6 µM [inhibitor, single point].

Q: With `O=C(Nc1cc2cccc([N+](=O)[O-])c2oc1=O)c1cccs1` as the molecule, how does the Potency read?
A: The Potency was inconclusive: 5.62 µM [inhibitor, partial curve].

Q: Which Potency does the source give for `Cc1ccc(C)c(-c2nn(CC(=O)Nc3cc(F)ccc3F)c(=O)c3c2CCCC3)c1` here?
A: The Potency was inconclusive: 35.5 µM [inhibitor, single point].

Q: With `CC(Nc1cccc([N+](=O)[O-])c1)C(=O)Nc1ccc(S(=O)(=O)N2CCCC2)cc1` (stereo not given) as the molecule, how does the Potency read?
A: The Potency was inconclusive: 2.82 µM [inhibitor, partial curve, poor fit].

Q: For `CC(CNC(=O)c1ccc(CSc2nc3ccncc3n2Cc2cccc(F)c2)cc1)c1ccccc1` (stereo not given), which Potency is on record?
A: The Potency was active: 10 µM.

Q: For `O=C(NC(NC(=S)N1CCOCC1)C(Cl)(Cl)Cl)c1ccc(Cl)cc1` (stereo not given), which Potency is on record?
A: The Potency was inconclusive: 3.16 µM [inhibitor, full curve, poor fit].

Q: Which “activity, negative = inhibition” value does the source give for `COc1ccccc1-n1nnnc1SCC(=O)NCC1(N2CCOCC2)CCCCC1` here?
A: The value was inactive: -2.33%.

Q: Which “activity, negative = inhibition” value does the source give for `COc1cc(C(=O)Nc2ccc(Cl)c(-c3nc4ncccc4o3)c2)cc(OC)c1OC` here?
A: The value was inactive: 8.27%.

Q: Which Potency does the source give for `CCOc1cccc(SCc2noc(C(=O)NC(C)C)c2C(=O)O)c1` here?
A: The Potency was inconclusive: 11.2 µM [inhibitor, partial curve].

Q: Which Potency does the source give for `Cc1ccc(C)c2[nH]c(=O)c(CN(CCN3CCCC3)C(=O)Nc3ccc(F)cc3)cc12` here?
A: Its Potency is inconclusive: 35.5 µM [inhibitor, single point].

Q: With `COc1ccccc1CNC(=O)CCCn1nc(C)c2c(C)n(-c3ccc(C)cc3)nc2c1=O` as the molecule, how does the Potency read?
A: Its Potency is inconclusive: 8.91 µM [inhibitor, partial curve, poor fit].

Q: With `O=S(=O)(NCCC1=CCCCC1)c1ccc(F)cc1` as the molecule, how does the Potency read?
A: The Potency was inconclusive: 12.6 µM [inhibitor, partial curve, poor fit].

Q: Which “activity, negative = inhibition” value does the source give for `COc1ccccc1-c1ccc([C@@H]2C[C@H]3[C@H](CON3C)CN2C(=O)c2ccc(-c3ccccc3)cc2)cc1` here?
A: The value was inactive: -2.56%.

Q: For `O=C(C1CCCN(S(=O)(=O)c2ccc(Br)s2)C1)N1CCCCCC1` (stereo not given), which Potency is on record?
A: The Potency was inconclusive: 17.8 µM [inhibitor, single point].

Q: Which Potency does the source give for `CCNC(=S)N1N=C2c3ccccc3CCC2C1c1ccc(F)cc1` (stereo not given) here?
A: The Potency was inconclusive: 14.1 µM [inhibitor, single point].

Q: With `COc1ccccc1C(c1nnnn1Cc1ccccc1)N1CCN(C2CCCC2)CC1` (stereo not given) as the molecule, how does the “activity, negative = inhibition” value read?
A: The value was inactive: 0%.
